From PubChem BioAssay AID1346428 (National Center for Advancing Translational Sciences (NCATS), 2018)
Screen size: about 48,000 compounds; about 1,200 (2.5%) were called active. Not shown: some 2% with an inconclusive outcome.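 How the source made its calls: active means activation of at least 60% and not above a set upper limit (about 1 call in 100 departs from these limits); inconclusive means activation of 40% to 60%, or above that upper limit; inactive means activation under 40%.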 Some of the results follow.

Target: Probable G-protein coupled receptor 32 (Homo sapiens) (UniProt O75388)
Experiment: qHTS for Agonists of Human Resolvin D1 Receptor DRV1; further: 0% is about no effect
Details: CHO-K1 GPR32 beta-arrestin PathHunter luminescence, 90 min; at 76.9 µM; hits give high values; zero percent set by DMSO-only wells
Procedure, shortened: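 Beta-arrestin recruitment read-out: luminescence from complemented beta-Gal in CHO-K1 GPR32 PathHunter cells, measured 1 h after detection reagent at ambient temperature following 90 min compound exposure at 37 °C; DMSO served as basal (EC0) control.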

Sequence of UniProt O75388 (O75388 whole entry, looked up): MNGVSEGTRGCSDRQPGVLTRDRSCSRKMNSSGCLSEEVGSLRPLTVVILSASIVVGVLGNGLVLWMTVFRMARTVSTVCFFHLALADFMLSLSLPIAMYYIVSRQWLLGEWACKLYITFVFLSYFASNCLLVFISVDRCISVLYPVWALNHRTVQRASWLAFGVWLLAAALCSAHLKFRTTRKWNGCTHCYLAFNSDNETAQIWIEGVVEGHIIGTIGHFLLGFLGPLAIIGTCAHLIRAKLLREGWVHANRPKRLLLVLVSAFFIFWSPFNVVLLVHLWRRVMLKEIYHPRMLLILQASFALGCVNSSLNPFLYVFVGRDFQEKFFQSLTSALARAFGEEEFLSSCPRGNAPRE

activation, inactive:
CCOc1ccc(N2CC(NC(=O)C3CCCCC3)CC2=O)cc1 (centres undefined) -6.51%
CCOC(=O)c1ccc(NC(=O)CCc2c(C)nc3cc(-c4ccc(OC)cc4OC)nn3c2C)cc1 6.14%
COc1cc(C(=O)Nc2ccc(-c3nc4cc(C)c(C)cc4o3)cc2)cc(OC)c1OC 3.43%
CC(C)Oc1ccc(C(=O)N2CCC(c3nc4ccccc4s3)CC2)cc1 3.89%
CCOC(=O)c1c(C)oc2nc(C)nc(NCCc3ccc(OCC)cc3)c12 4.34%
CC1=C(C(=O)NCc2cccc(Cl)c2)C2(CCCCCC2)OC1=O -18.9%
CC(=O)Nc1ccc(S(=O)(=O)N2CCC(n3c(C)nc4cccnc43)CC2)cc1 10.7%
CCC(C)NC(=O)Cn1c(=O)n(-c2cc(OC)cc(OC)c2)c(=O)c2ccccc21 (centres undefined) -0.49%
COc1ccc(NC(=O)CCCc2nnc3n(C(C)C)c(=O)c4sccc4n23)cc1Cl 1.02%
CCOc1ccc(CN(CCc2ccc3c(c2)OCO3)Cc2cc(OC)cc(OC)c2)cc1 -29.6%
CCOc1ccc(NC(=O)Cn2cc(C(=O)C3CC3)c3ccccc32)cc1 -2.49%
CCN1CCC(N(Cc2ccc(F)cc2)C(=O)Nc2ccc(C)c(F)c2)CC1 -16.9%
COc1ccc(C(=O)Nc2ccc(-c3nc4cc(C)ccc4o3)c(O)c2)cc1 44.3%
O=C(CSc1nccn1Cc1ccco1)Nc1ccc(OC(F)(F)F)cc1 -11.3%
Cc1cc(=O)[nH]c2nnc(SCc3cccc(C(F)(F)F)c3)n12 22%
Cc1nc(N2CCOCC2)c2c(C(=O)N3CCN(c4cccc(C(F)(F)F)c4)CC3)c(C)oc2n1 -19.1%
Cc1cccc2nc(-c3ccc(Cl)s3)c(Nc3ccc4c(c3)OCCO4)n12 -27.3%
COc1ccc(NC(=O)C(Cc2ccccc2)NS(=O)(=O)c2ccc3c(c2)oc(=O)n3C)c(OC)c1 (centres undefined) -1.02%
COc1cc(Cl)c(NC(=O)CN2C(=O)c3cccnc3Sc3ccccc32)c(OC)c1 -21.4%
CC(C)c1ccc(NC(=O)Cn2nnc(C(=O)NCCc3ccccc3)c2N)cc1 -10.9%
COc1ccc(OC(=O)c2cc(-c3ccc4c(c3)OCCO4)on2)cc1 2.98%
Cc1ccc(C)c(NC(=O)CSc2cn(CC(=O)N3CCCCC3)c3ccccc23)c1 -15.5%
CCOc1ccc(NC(=O)Cn2c(=O)nc(-c3ccccc3)c3ccccc32)cc1 -9.29%
Cc1nn(-c2ccccc2)c(-n2cccc2)c1C(=O)NCCCN1CCN(c2ccccc2F)CC1 17.7%
Cc1ccc(OCC(=O)OCc2cc(=O)n3ccsc3n2)cc1C -9.08%
COc1ccccc1N1CCN(c2ncc3c(n2)CCN(Cc2ccccc2C)C3)CC1 -10.2%
Cc1nc2ccc(S(=O)(=O)NCC(=O)NCc3ccc(Cl)cc3)cc2s1 -8.3%
Cc1ccc(-n2c(-c3ccc(Br)cc3)nc3c(cnn3-c3ccccc3)c2=O)cc1 -6.02%
COc1ccc(NC(=O)Cn2c(=O)n(Cc3ccco3)c(=O)c3sc4ccccc4c32)cc1OC 30.8%
CC(=O)c1ccc(NC(=O)c2cnc(N3CCCC3)nc2C)cc1 34.6%
CCOc1cc(C#N)c(NC(=O)c2ccc(OC)c(S(=O)(=O)N3CCCCC3)c2)cc1OCC -6.62%
O=C(Cn1c(=O)n(Cc2ccco2)c(=O)c2ccccc21)Nc1cccc(F)c1 -26.7%
CCc1ccccc1NC(=O)Cn1c(=O)n(-c2ccccc2)c(=O)c2oc3ccccc3c21 -14.7%
COc1ccccc1N1CCN(S(=O)(=O)c2ccc(-c3coc(C)n3)cc2)CC1 -0.991%
Cc1c2cnn(-c3ccccc3)c(=O)c2c(C)n1CC(=O)Nc1ccccc1Br -33.9%
O=C(C1CCCCC1)N(Cc1cccnc1)c1nc2ccc(Cl)cc2s1 -5.6%
Cc1ccc(N2CCN(C(=O)c3cn(C)c4ccc(S(=O)(=O)N5CCC(C)CC5)cc4c3=O)CC2C)cc1 (centres undefined) -1.69%
COc1ccc2c(c1)CC(C(=O)Nc1ccc(Br)c(C)c1)CO2 (centres undefined) 2.16%
CCN(C(=O)CSc1nc(-c2ccc(C(C)C)cc2)no1)c1ccccc1 -8.56%
O=C(Nc1nnc(S(=O)(=O)N2CCCc3ccccc32)s1)c1ccc(Cl)cc1 35.3%
Cc1ccccc1-c1nc(CS(=O)(=O)CC(=O)NCCCN2CCN(C)CC2)c(C)o1 -3.3%
Cc1c(N(C)CS(=O)(=O)O)c(=O)n(-c2ccccc2)n1C -44.6%
COc1ccc(C(=O)NCC(=O)OCc2cc(=O)n3nc(C4CCCCC4)sc3n2)cc1 17.9%
COc1ccc(NC(=O)CSc2nncn3c2cc2occc23)c(OC)c1 -27.7%
COc1ccc(-n2nnc(-c3nc(-c4ccc5c(c4)OCO5)no3)c2C)cc1Cl 2.15%
Cc1ccc(NC(=O)NC(C)c2c(-n3cccc3)sc(C)c2C)c(C)c1 (centres undefined) -7.49%
Cc1ccc(SCC(=O)Nc2ccc(O)c(-c3nc4cc(C)ccc4o3)c2)cc1 -26.3%
Cc1ccccc1-n1c(SCC(=O)c2ccccc2)nnc1-c1ccc(F)cc1 -18.3%
COc1ccc(NC(=O)c2ccco2)cc1NC(=O)c1cccc(C)c1OC -12.5%
O=C(Nc1ccccc1)C1CCN(S(=O)(=O)c2ccc3c(c2)CCCN3C(=O)C2CCC2)CC1 -13.6%
Cc1ccc2c(CN3CCN(c4ccc(Cl)cc4)CC3)cc(=O)oc2c1 -14.1%
Cc1ccc(CNC(=O)CCCCCn2c(=O)c3sccc3n(CC(=O)C(C)(C)C)c2=O)cc1 4.39%
COc1ccc(Cn2c(CCC(=O)Nc3cc(C)cc(C)c3)nc3cccnc32)cc1 26.9%
CCOc1cc(CNC(=O)CSc2n[nH]c(-c3ccccc3)n2)cc(OCC)c1OCC -7.98%
